Reference: the supplement of paper PMC11417369
± gives the standard deviation of the averaged measurements. Some of the results follow.

system: PfAP2-I AP2 domain 3 (GST-tagged); test: gcPBM binding intensity (ln(normalized median fluorescence intensity)); higher = stronger DNA binding
How it was run: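 The binding buffer was 1× PBS containing 1% milk, 0.2 mg/ml BSA, 0.5% salmon testes DNA and 0.03% Triton X-100. In it, GST-tagged P. falciparum DNA-binding domains expressed in E. coli were applied for 1 h to an Agilent 4 × 180k array of primer-extended double-stranded 36-bp intergenic genomic probes plus negative controls. Binding intensity, read with Alexa488 anti-GST antibody and a 488 nm scan, is the highest Masliner-normalised natural-log median intensity across replicate spots of either probe orientation.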

| Sequence | gcPBM binding intensity (ln) |
| --- | --- |
| AATTACTTAAATTATTGTACCCTAATGTTAATTTCA [XGTACX_site825] | 7.74 ± 0.73 |
| AATATTATAAATGATACACACTTAAAATACAGACAC [CACACA_site8868] | 8.19 ± 0.4 |
| TTCATAAAAAATGTAGTGCATTGAATAAAATTACAT [GTGCAC_site9393] | 10.4 ± 0.41 |
| TTTTATATCTACCTTTGTACATATTTATTTTTTTTA [XGTACX_site7872] | 8.01 ± 0.74 |
| TTAATTTTGGTAAATGCATGTAATTAAAAATAAAAA [TGCATGCA_site234] | 8.19 ± 0.8 |
| ATATTGAAATTAAAAAAATATATGAACAAATGATGA [CACACA_negctrl_site602] | 7.69 ± 0.59 |
| TAAATTTTTTTTTTTTGTACACAAAAATATAATATT [XGTACX_site8151] | 7.61 ± 0.31 |
| AAAATTATTAAATATGTACACACGTACATTTTATAA [CACACA_site8750] | 7.72 ± 0.35 |
| TATAAATATGTGTATACACACCTGATAAAGGTATAT [CACACA_site7283] | 8.14 ± 0.52 |
| ATATATATATATATATGTACATATACACATGTGTGC [XGTACX_site168] | 9.39 ± 0.44 |
| AAATAAATAATAAATAAATAAATAAAATACCAAATA [GTGCAC_negctrl_site620] | 7.61 ± 0.7 |
| GCTTATGCTCAATATTGTACTTTTTTTATTTATTCA [XGTACX_site8863] | 7.98 ± 0.62 |
| TACTTCTTTTTTATTTATTTTACTTTTTATTCTGTA [CACACA_negctrl_site772] | 7.86 ± 0.66 |
| ATTTAATTTTTTTTTAAACACACATTTTTTTATTTA [CACACA_site8880] | 7.75 ± 0.54 |
| TTCAATTATATTCTTTGTACGAATCTTCTATAAATT [XGTACX_site4346] | 8.02 ± 0.44 |
| TACATAAACATTTATACACACATTATATATACATAT [CACACA_site8028] | 7.85 ± 0.52 |
| TGTGCTCGCTATTACACACTCATTGGGATAAAATTG [CACACA_site2029] | 7.76 ± 0.33 |
| TGGCTTATTCAGAAATGTACACATATAAATATATAT [XGTACX_site3765] | 7.93 ± 0.35 |
| TGAATAAATAAGATACGTACACACATATACAAAATA [XGTACX_site7758] | 7.95 ± 0.59 |

| Sequence | gcPBM binding intensity (ln) |
| --- | --- |
| TTTCTTTTAATTATCCGTACACAAACAATAAAATAA [XGTACX_site7841] | 8.195 ± 0.049 |
| AAAATAATATATGTATGTACACAATTATTTATAAGT [XGTACX_site7267] | 7.96 ± 0.39 |
| AAAAAAAAAAAAAACACACACACACGCAAATACATA [CACACA_site6474] | 8.38 ± 0.52 |
| TCCTTAAATATAAAGGTGCTATGCAGACCTTATGTT [GTGCAC_site9472] | 8.17 ± 0.41 |
| TTATAAATTCAATGTACTACACAAAATGAATTTAAT [XGTACX_site6683] | 7.82 ± 0.22 |
| TACAGACATAGACACACACACACGCATAAAAAAAAA [CACACA_site6820] | 8.22 ± 0.45 |
| ATATAAGTACGGCATGCATGCACATTTTTTTATTCC [TGCATGCA_site101] | 8.24 ± 0.86 |
| TTCCTATAAAAAAACACACACATATAAATATAAATA [CACACA_site7154] | 7.68 ± 0.34 |
| TAATACTTAAAATGTTGTACATAATAATTTTATATT [XGTACX_site5403] | 7.86 ± 0.23 |
| TATAACAAGTAATGGTGTACATTATATTATGTAATA [XGTACX_site2761] | 7.76 ± 0.54 |
| CATATGCGTCTTGCCTTGCACACTTTTATGAAAAAA [CACACA_site2055] | 8.5 ± 0.35 |
| TATATATATATATATACATGCATTTCTCATGTACAT [TGCATGCA_site621] | 9.62 ± 0.71 |
| GTCATCATAATCTATTGTACAAAAATTTATACAGAT [XGTACX_site1059] | 8.02 ± 0.45 |
| ATAAATACATTAAAATGTACATAAAAATATTACTGG [XGTACX_site1484] | 7.68 ± 0.35 |
| TATAAAAATAAGTATACACACAAAATGCGTAACTTT [CACACA_site1295] | 8.27 ± 0.91 |
| TACATTAAACGAATAGTGCAAGAAGTATTCGTATAA [GTGCAC_site9939] | 9.28 ± 0.18 |
| TTACAAAACCGATGTTGTACATTCAATAGATAATGT [XGTACX_site3806] | 7.72 ± 0.59 |
| TAGTTGTGAGTTACATGTACATGTATTTATTTTTTA [XGTACX_site7088] | 7.84 ± 0.48 |
| AATGTATAAAAGTTTTGTACATATTCTCACACATAT [XGTACX_site965] | 7.72 ± 0.49 |

| Sequence | gcPBM binding intensity (ln) |
| --- | --- |
| ATATACCATATGCATGGTACACATTTACAACAAAAA [XGTACX_site3142] | 7.79 ± 0.43 |
| ATAACGTAAACAATGTGGACACATACATAAATATAT [XGTACX_site707] | 7.86 ± 0.53 |
| TTTATTAAATAAAGCACACACAACAACTTTTCACAA [CACACA_site4132] | 9.63 ± 0.45 |
| GATAACAATATGTGTACACATTTATATCTCCACATA [CACACA_site5442] | 8.3 ± 0.13 |
| ATATAGAATGTTTACACACGCAATAAATATATATAT [CACACA_site217] | 9 ± 0.042 |
| GCGTATCATTTTAAAACACACAGGATTTTATAAGTA [CACACA_site1225] | 7.68 ± 0.7 |
| ATGGTATAAAAAAATACACACTTATTTATATTCTTA [CACACA_site6370] | 7.54 ± 0.61 |
| AAAAATAACATATAAACACACATATAGATTTATATA [CACACA_site7738] | 7.49 ± 0.37 |
| TGTAGTCTGGAGAAGAGTACACAGTATCTGGTAGCT [XGTACX_site2036] | 7.78 ± 0.67 |
| TTAAAAAATCACAACACACACACACGCAAAAAAAAA [CACACA_site6793] | 8.32 ± 0.4 |
| AAATATTACATACACGCACACATTAAAATATTTAAA [CACACA_site5440] | 8.22 ± 0.33 |
| ATGTACCTTCAAACTACACACAAATGAAGGAACACA [CACACA_site3330] | 7.79 ± 0.38 |
| ATCTAATAAAAATACACACACATATGGTTTGTGAAT [CACACA_site6962] | 7.54 ± 0.4 |
| TACATTATAAATATTACACACTTTATAAAATAATAA [CACACA_site6096] | 7.72 ± 0.32 |
| ACCGTGGGAGGACACACACACACACGCACATATATA [CACACA_site6289] | 8.21 ± 0.47 |
| AAATAACTTTTAAATACACACGTAAAATATATTGTG [CACACA_site9085] | 7.7 ± 0.52 |
| TCCTTTTTTTTTTATGCACACACAATTATACATTCC [CACACA_site9287] | 10.3 ± 0.28 |
| ATAATATTTTTATGTACACACCTTAATCCTTAAAAG [CACACA_site5881] | 8.07 ± 0.43 |
| TTAACCACTAAAAGTACACACATATATACATATATA [CACACA_site3912] | 8.085 ± 0.049 |
